Test results as given in PubChem BioAssay AID686979 (National Center for Advancing Translational Sciences (NCATS), 2013).
The whole screen tested about 420,000 compounds, of which about 50,000 (12%) were called active. This list was built around the results that the source calls inconclusive (neither active nor inactive); the mix of calls is not that of the screen. Calls come from the whole dose curve; as a rule, active = well fitted inhibition curve with a large enough effect; inconclusive = small, poorly fitted or top-dose-only effect; inactive = flat fitted curve, though single readings scatter. Potencies of inconclusive entries are left out as doubtful fits.

Test: qHTS for Inhibitors of human tyrosyl-DNA phosphodiesterase 1 (TDP1): qHTS in cells in presence of CPT; note: nearly all actives have a fitted effect of over 55% in size
Details: chicken DT40 Tdp1-/-;hTDP1 cells + 20 nM CPT, ATP luminescence, 48 h; activity change, negative = growth inhibition: at 46.2 µM (top of the series) unless noted
Method in brief: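 Chicken DT40 Tdp1-/- cells stably complemented with human TDP1 were seeded at 400 cells/well in medium containing 20 nM camptothecin, exposed to pin-transferred compounds, and grown at 37 °C for at least 48 hr. Viability was read as ATP luminescence.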
% is set by controls: 0 for no effect and ±100 for the full control effect; potency is the fitted concentration of half-maximal effect; tags give direction and shape of the fitted curve.

SMILES	Potency	activity change, negative = growth inhibition
Cc1cc(C)c(C)c(S(=O)(=O)Nc2ccc3cn[nH]c3c2)c1C	inconclusive [inhibitor, single point]	–
C=CCN1C[C@H](C(=O)N(CCCN(C)C)C(=O)NCC)C[C@@H]2c3cccc4[nH]cc(c34)C[C@H]21	–	inactive: -6.53%
COc1cccc(N2CC(=O)Nc3c(oc4nc(-c5ccccc5)cc(C)c34)C2=O)c1	–	inactive: -17.8%
Cc1cccnc1C(NC(=O)C1CCN(CCCOc2ccc(F)cc2)CC1)c1ccccc1 (stereo not drawn)	inconclusive [inhibitor, single point]	–
Cc1cccc(Cn2nnc3c(=O)[nH]c(C4CCN(C(=O)c5ccccc5F)CC4)nc32)c1	inconclusive [inhibitor, single point]	–
CCOc1ccc(NC(=O)CN(C)CC(=O)Nc2ccccc2SC)cc1OCC	inconclusive [inhibitor, single point]	–
CCCC(=O)NCc1nc2cccnc2n1Cc1ccc(F)cc1	–	inactive: -22.9%
Cc1nnc(C)c2c(C)n(C(c3ccccc3)c3ccccc3)c(C)c12	inconclusive [inhibitor, partial curve]	–
CCCCCc1nnc(NC(=O)NS(=O)(=O)c2ccc(C)cc2)s1	–	inactive: -12.1%
O=S1(=O)CCO[C@H]2CCCC[C@@H]2N1Cc1ccc(Cl)cc1	inconclusive [inhibitor, single point]	–
COc1ccc(CN(C(C)=O)c2cc(C)c([N+](=O)[O-])cc2OC)cc1OC	–	inactive: -16.6%
CCOC(=O)[C@]12CCCC=C1N(Cc1cccc3ccccc13)C(=O)[C@H](CC(=O)NCCCOC)C2	inconclusive [inhibitor, single point]	–
CN(C)CCOC1c2ccccc2-c2ccccc21	inconclusive [inhibitor, single point]	–
CN(Cc1ccccn1)Cc1nc(Cc2ccccc2Cl)no1	–	inactive: 3.45%
O=C1[C@H]2[C@@H](c3ccc(Cl)cc3)N3C(=O)N(c4cccc(Br)c4)C(=O)[C@@]3(Cc3ccc(Cl)cc3)[C@H]2C(=O)N1C1CCCCC1	inconclusive [inhibitor, partial curve]	–
O=C(Nc1cc(-c2nc3ccccc3o2)ccc1Cl)c1cccc2c(Cl)cccc12	inconclusive [inhibitor, single point]	–
CCOC(=O)c1ccc(NC(=O)Cc2coc3cc(C)cc(C)c23)cc1	inconclusive [inhibitor, single point]	–
CCC(=O)[C@@H](C)[C@@H](OC(C)=O)[C@H](C)C[C@@H](C)[C@H]1OC(=O)C[C@@]2(O)CC=C(C)C(O2)C(C)=CCCC[C@H](O[C@H]2C[C@@H](OC(N)=O)[C@H](OC(C)=O)[C@@H](C)O2)C=C[C@H](C)C[C@H]1C	inconclusive [inhibitor, full curve]	–
COc1ccc2c(=O)c(OC)c(-c3ccccc3)oc2c1	inconclusive [inhibitor, partial curve, poor fit]	–
CCCn1c(CCC(=O)Nc2ccccc2Cc2ccccc2)nc2cc(S(=O)(=O)N3CCOCC3)ccc21	active: 16.4 µM	–
Cn1nnnc1-c1cc(Cl)cc(Cl)c1	inconclusive [inhibitor, single point]	–
O=C(NCC1CCN(Cc2cccc(Cl)c2)CC1)Nc1ccc(Cl)cc1	inconclusive [inhibitor, single point]	–
CC1CC(C)CN(C(=O)CSc2nnc(-c3ccc(Cl)s3)o2)C1 (stereo not drawn)	inconclusive [inhibitor, partial curve]	–

SMILES	Potency	activity change, negative = growth inhibition
CC1(c2ccc3c(c2)OCCCO3)NC(=O)N(CC(=O)NCCc2ccc(F)cc2)C1=O (stereo not drawn)	–	inactive: 0.0967%
O=S(=O)(c1ccc2oc(=S)[nH]c2c1)N1CCOCC1	inconclusive [inhibitor, single point]	–
CCN(CC(=O)Nc1ccc(Cl)c(S(=O)(=O)N(C)C)c1)Cc1nc2ccccc2c(=O)[nH]1	–	inconclusive: -33.3% [inhibitor]
Cc1ccc(C2NC(c3ccc(C)cc3)C(C)C(=O)C2C)cc1 (stereo not drawn)	inconclusive [inhibitor, single point]	–
CS(=O)(=O)c1nc(S(=O)(=O)c2ccc(Cl)cc2)c(N2CCC3(CC2)OCCO3)s1	inconclusive [inhibitor, single point]	–
O=C(c1c(Cl)nc2sccn12)N1CCN(c2cccc(Cl)c2)CC1	active: 2.31 µM	–
COCOCCn1cc(CN2CCS(=O)(=O)N(Cc3ccc(-c4cccc(CO)c4)cc3)C(C(C)C)C2=O)nn1 (stereo not drawn)	inconclusive [inhibitor, single point]	–
COc1ccccc1/C=N/NC(=O)c1cccc(NC(=O)c2ccccc2Cl)c1	–	inactive: 9.52%
CNc1cnc(-c2ccc(C(=O)N3CCOCC3)cc2)cn1	inconclusive [inhibitor, single point]	–
COc1ccc(S(=O)(=O)NCc2cccn2Cc2cccc(C)c2)cc1OC	inconclusive [inhibitor, single point]	–
CCOC(=O)c1c(-c2ccccc2)oc2ccc(NS(=O)(=O)c3ccccc3)cc12	inconclusive [inhibitor, partial curve]	–
O=c1c(-c2cccs2)nc2cncnc2n1Cc1ccc(F)cc1	–	inactive: 7.93%
NS(=O)(=O)c1ccc(N=Nc2ccc(O)c3ncccc23)cc1	active: 2.59 µM	–
CCCOC(=O)c1ccc(Cl)c(NC(=O)c2ccc(-c3ccccc3)cc2)c1	–	inconclusive: -31% [inhibitor]
Cc1nc2ccccc2nc1N1CCCCC1	–	inconclusive: -32.4% [inhibitor]
COC(=O)c1sc(-c2ccc(Cl)cc2)cc1NC(=O)CSCC(=O)O	–	inactive: 2.84%
COc1ccc(CNC(=O)c2cnc(N3CCCC3)nc2C)cc1	–	inactive: 13.1%
Cc1ccc(CC(=O)N(Cc2ccccc2)c2ccccn2)cc1	inconclusive [inhibitor, single point]	–
CN(C)c1ccc(/C=C/C(=O)c2ccc(O)cc2)cc1	inconclusive [inhibitor, single point]	–
Cc1cc(-c2nc3ccccc3c(=O)o2)ccc1[N+](=O)[O-]	–	inactive: -23.5%
COc1ccccc1N1CCN(C(=O)C2c3ccccc3Oc3ccccc32)CC1	active: 2.91 µM	–
Cc1ccc2c(CC(=O)NCC3(N4CCOCC4)CCCCC3)coc2c1C	inconclusive [inhibitor, single point]	–
O=C(Nc1ccc(F)cc1)C(=O)C1C(=O)Nc2ccccc21 (stereo not drawn)	inconclusive [inhibitor, single point]	–

SMILES	Potency	activity change, negative = growth inhibition
Cc1nc(C(=O)NCc2ccccc2)sc1C1(C)CC(c2ccccc2)=NO1 (stereo not drawn)	inconclusive [inhibitor, single point]	–
COc1cnn(-c2ccc(F)cc2)c(=O)c1Br	–	inactive: -19.9%
CCc1ccc2[nH]c(=O)c(C3C(C#N)=C(N)Oc4c3ccc3cccnc43)cc2c1 (stereo not drawn)	active: 11.6 µM	–
CC1Cc2ccccc2N1C(=O)CN1CCC(n2nnc3cc(C(F)(F)F)ccc32)CC1 (stereo not drawn)	inconclusive [inhibitor, single point]	–
COC(=O)C1(Cc2cc(-c3ccc(Cl)cc3)no2)CCN(C(=O)OC(C)(C)C)CC1	inconclusive [inhibitor, single point]	–
Cc1cc(C)nc(-n2nc(C)cc2NC(=O)CNC(C)c2ccccc2)n1 (stereo not drawn)	inconclusive [inhibitor, single point]	–
O=C(Nc1ccn(Cc2c(F)c(F)cc(F)c2F)n1)c1cccc(Cn2cc([N+](=O)[O-])cn2)c1	inconclusive [inhibitor, single point]	–
O=C(C1CC1)N1N=C(c2ccc(Cl)cc2)CC1(O)C(F)(F)F (stereo not drawn)	–	inactive: -18.7%
COc1ccc(CC2(CO)CCN(S(=O)(=O)c3cccc4cccnc34)CC2)cc1	–	inactive: -6.19%
COc1ccc(-c2c(C)c3ccc(O)c(CN4CCN(C)CC4)c3oc2=O)cc1OC	–	inactive: -29.5%
Cc1ccccc1C(=O)Nc1nc2c(s1)CC(C(C)(C)C)CC2 (stereo not drawn)	active: 16.4 µM	–
Cc1ccc(S(=O)(=O)N2CCC[C@H]2C(=O)Nc2ccccc2Cl)cc1	–	inactive: 4.04%
COc1ccc(CN(Cc2ccc(C(=O)O)cc2)C(=S)Nc2ccccc2F)cc1OC	–	inactive: -17.7%
O=C(Nc1ncccc1O)c1cccc(S(=O)(=O)N2CCN(c3ccc(F)cc3)CC2)c1	inconclusive [inhibitor, single point]	–
Cc1nn(-c2ccccc2)c(C)c1NC(=O)COc1ccc(Cl)cc1Cl	active: 16.4 µM	–
COc1ccc(-c2ccc3c(c2)C2CC3CCN2C(=O)C2CCCCC2)cc1 (stereo not drawn)	inconclusive [inhibitor, single point]	–
CCc1nnc(NS(=O)(=O)c2ccc(NC(=O)COc3ccc(Cl)c(C)c3)cc2)s1	inconclusive [inhibitor, single point]	–
Cc1cccc2sc(N(Cc3cccnc3)C(=O)C3CCCCC3)nc12	inconclusive [inhibitor, single point]	–
CN(Cc1ccccc1F)c1ncnc2sccc12	inconclusive [inhibitor, single point]	–
COC(=O)[C@@H](N)CSC/C=C(\C)CC/C=C(\C)CCC=C(C)C	inconclusive [inhibitor, partial curve]	–
Cc1c(C(=O)NC(=S)Nc2ccc3c4c(cccc24)CC3)cccc1[N+](=O)[O-]	inconclusive [inhibitor, partial curve, poor fit]	–
CC(C)CN(CCNC(=O)CN1N=C(c2ccc(Cl)cc2)CCC1=O)CC(C)C	–	inactive: -24.5%
